According to patent US20260209260A1, “VECTORIZED NHC IRIDIUM(III) COMPLEXES AND USE THEREOF IN PHOTODYNAMIC THERAPY AND/OR DIAGNOSTIC” (CENTRE NATIONAL DE LA RECHERCHE SCIENTIFIQUE, priority 2022, published 2026):
Some of these results come from one statement about several compounds together.

Experiments:
[1] = UV/Vis absorption spectra; type: physicochemical; settings: CH2Cl2 or CH2Cl2/MeOH (1:1), room temperature
Procedure: UV/Vis absorption spectra were recorded at RT on solutions contained in quartz cuvettes (optical pathlength 1 cm, Hellma®) with a PerkinElmer® UV/VIS/NIR spectrophotometer Lambda 950 and a PerkinElmer® detector UV/VIS/NIR Accessory 2D Detector Module.

[2] = test system: MC3T3 osteoblast cells (non-tumor); test: Cell viability assay (MTT), dark and blue light; type: cell-based, Murine; settings: in the dark, 72 h
Procedure: Cells were grown in humidified incubators at 37° C. in 5% CO2. Murine MC3T3 osteoblast and NIH-3T3 fibroblast cells-used as non-tumor cell models-were cultured in a-MEM medium and DMEM medium supplemented with 10% fetal bovine serum (FBS) and 1% Penicillin/Streptomycin (P/S) antibiotics, respectively. Human T24 bladder, MGHU3 bladder, Scaber bladder, A549 lung, MCF7 breast, MiaPaCa2 pancreas cancer cells were cultured in DMEM medium supplemented with 10% FBS and 1% P/S antibiotics. […] Human Hela cervix and HepG2 liver cancer cells were cultured EMEM medium supplemented with 10% FBS and 1% P/S antibiotics.
(§1) MTT reagent (3-(4,5-dimethylthiazol-2-yl)-2,5-diphenyltetrazolium bromide) was used to determine cell death as originally described by Mosmann. Briefly, cells were seeded from 5,000 to 10,000 cells/well in 24-well plates (1 mL) depending on the cell type and allowed to attach overnight. The complexes were prepared in DMSO. The concentration of the complexes was calculated based on the elemental composition of the complexes determined by the elemental analyses. […] After solubilization with 500 μL of DMSO, formazan was quantified spectrophotometrically with a microplate reader at 570 nm absorbance (ClarioSTAR, BMG LabTech). […] All the results were calculated from data obtained in at least three independent experiments performed in triplicate. […]

[3] = test system: PSMA-positive cells (C4-2b and 22Rv1); test: Cell viability assay (MTT), summary over PSMA-positive cancer cells; type: cell-based, Human; settings: irradiated conditions
Procedure: (§2) Cells were grown in humidified incubators at 37° C. in 5% CO2. Murine MC3T3 osteoblast and NIH-3T3 fibroblast cells-used as non-tumor cell models-were cultured in a-MEM medium and DMEM medium supplemented with 10% fetal bovine serum (FBS) and 1% Penicillin/Streptomycin (P/S) antibiotics, respectively. Human T24 bladder, MGHU3 bladder, Scaber bladder, A549 lung, MCF7 breast, MiaPaCa2 pancreas cancer cells were cultured in DMEM medium supplemented with 10% FBS and 1% P/S antibiotics. Human ASPC-1 pancreas, PC-3 prostate, DU-145 prostate, C4-2B prostate and 22rV1 prostate cancer cells were cultured in RPMI medium supplemented with 10% FBS and 1% P/S antibiotics. Human Hela cervix and HepG2 liver cancer cells were cultured EMEM medium supplemented with 10% FBS and 1% P/S antibiotics.
as §1, with “Briefly, cells were seeded from 5,000 to 10,000 cells/well in 24-well plates (1 mL) depending on the cell type and allowed to attach overnight. The complexes were prepared in DMSO.” left out

[4] = test system: PSMA-negative cells (PC-3 and DU145); test: Cell viability assay (MTT), summary over PSMA-negative cancer cells; type: cell-based, Human; settings: irradiated conditions
Procedure: as §2
as §1, with “Briefly, cells were seeded from 5,000 to 10,000 cells/well in 24-well plates (1 mL) depending on the cell type and allowed to attach overnight. The complexes were prepared in DMSO.” left out

[5] = test system: C4-2B prostate cancer cells (PSMA-positive); test: Cell viability assay (MTT), dark and blue light; type: cell-based, Human
Procedure: as §2
as §1, with “Briefly, cells were seeded from 5,000 to 10,000 cells/well in 24-well plates (1 mL) depending on the cell type and allowed to attach overnight. The complexes were prepared in DMSO.” left out

[6] = Luminescence emission spectra and quantum yield; type: physicochemical; settings: room temperature; reference POPOP in hexane or rhodamine B in ethanol; listed as Ill-g
Procedure: Fluorescence and phosphorescence emission spectra were obtained with a HORIBA JOBIN YVON, fluromax-4 and spectrofluorometer.
Luminescence quantum yields were measured according to the method of Demas and Crosby, on solution samples at RT. The quantum yield is defined as: […]
Where ΦP is the quantum yield of the sample, ΦR is the know quantum yield of the reference standard. […].
The luminescence spectra of vectorized iridium(III) complexes were determined in CH2Cl2 at room temperature (Table 3).

## F[P-](F)(F)(F)(F)F.O=C(O)CC[C@H](NC(=O)N[C@@H](CCCCNC(=O)CCn1cc[n+]2[c]1[Ir-3]13([c]4ccccc4-c4c5ccccc5cc[n+]41)([c]1ccccc1-c1c4ccccc4cc[n+]13)[n+]1ccccc1-2)C(=O)O)C(=O)O [III-h]
[1]
  maximum absorption, lowest-lying bands in the visible region over 360 nm: 428-438 nm
[2]
  GI50: ≥ 52.4 µM
[3]
  increase in cell toxicity in PSMA-positive cancer cells compared to non-tumor models: > 70 fold
[4]
  increase in cell toxicity in PSMA-negative cancer cells compared to non-tumor models: > 14 fold

## F[P-](F)(F)(F)(F)F.O=C(O)CC[C@H](NC(=O)N[C@@H](CCCCNC(=O)CCn1cc[n+]2[c]1[Ir-3]13([c]4c(sc5ccccc45)-c4cccc[n+]41)([c]1c(sc4ccccc14)-c1cccc[n+]13)[n+]1ccccc1-2)C(=O)O)C(=O)O [III-j]
[1]
  maximum absorption, lowest-lying bands in the visible region over 360 nm: 428-438 nm
[5]
  SI (vs NIH-3T3) C4-2b Dark: >6.7 to 25

## F[P-](F)(F)(F)(F)F.O=C(O)CC[C@H](NC(=O)N[C@@H](CCCCNC(=O)CCn1cc[n+]2[c]1[Ir-3]13([c]4ccccc4-c4sc5ccccc5[n+]41)([c]1ccccc1-c1sc4ccccc4[n+]13)[n+]1ccccc1-2)C(=O)O)C(=O)O [III-k]
[1]
  maximum absorption, lowest-lying bands in the visible region over 360 nm: 398-413 nm
[2]
  GI50: ≥ 52.4 µM
[3]
  increase in cell toxicity in PSMA-positive cancer cells compared to non-tumor models: > 70 fold
[4]
  increase in cell toxicity in PSMA-negative cancer cells compared to non-tumor models: > 14 fold

## CC(C)=CCC/C(C)=C/CC/C(C)=C/CSc1ccccc1C(=O)NCCCn1cc[n+]2[c]1[Ir-3]13([c]4ccccc4-c4ccc5ccccc5[n+]41)([c]1ccccc1-c1ccc4ccccc4[n+]13)[n+]1ccccc1-2.F[P-](F)(F)(F)(F)F [II-g]
[1]
  maximum absorption, lowest-lying bands in the visible region over 360 nm: 428-438 nm

## F[P-](F)(F)(F)(F)F.O=C(NCCCn1cc[n+]2[c]1[Ir-3]13([c]4ccccc4-c4sc5ccccc5[n+]41)([c]1ccccc1-c1sc4ccccc4[n+]13)[n+]1ccccc1-2)[c-]1cccc1.[Fe+2].c1cc[cH-]c1 [IV-k]
[1]
  maximum absorption, lowest-lying bands in the visible region over 360 nm: 398-413 nm

## F[P-](F)(F)(F)(F)F.O=C(O)CC[C@H](NC(=O)N[C@@H](CCCCNC(=O)CCn1cc[n+]2[c]1[Ir-3]13([c]4ccccc4-c4ccc5ccccc5[n+]41)([c]1ccccc1-c1ccc4ccccc4[n+]13)[n+]1ccccc1-2)C(=O)O)C(=O)O [III-g]
[1]
  maximum absorption, lowest-lying bands in the visible region over 360 nm: 428-438 nm
[6]
  ΦP emission phosphorescence quantum yield: below 1%

## F[P-](F)(F)(F)(F)F.O=C(O)CC[C@H](NC(=O)N[C@@H](CCCCNC(=O)CCn1cc[n+]2[c]1[Ir-3]13([c]4cccc5ccc6ccc[n+]1c6c45)([c]1cccc4ccc5ccc[n+]3c5c14)[n+]1ccccc1-2)C(=O)O)C(=O)O [III-i]
[1]
  maximum absorption, lowest-lying bands in the visible region over 360 nm: 398-413 nm

## F[P-](F)(F)(F)(F)F.O=C(CCCC[C@@H]1SC[C@@H]2NC(=O)N[C@@H]21)NCCCn1cc[n+]2[c]1[Ir-3]13([c]4ccccc4-c4ccc5ccccc5[n+]41)([c]1ccccc1-c1ccc4ccccc4[n+]13)[n+]1ccccc1-2 [I-g]
[1]
  maximum absorption, lowest-lying bands in the visible region over 360 nm: 428-438 nm

## F[P-](F)(F)(F)(F)F.O=C(NCCCn1cc[n+]2[c]1[Ir-3]13([c]4ccccc4-c4c5ccccc5cc[n+]41)([c]1ccccc1-c1c4ccccc4cc[n+]13)[n+]1ccccc1-2)[c-]1cccc1.[Fe+2].c1cc[cH-]c1 [IV-h]
[1]
  maximum absorption, lowest-lying bands in the visible region over 360 nm: 428-438 nm
